According to patent publication US20230113563A1 (SYSTIMMUNE, published 2023):

Columns and labels:
[1] = target: mesothelin on MDA-MB-231 cells (UniProt Q13421 37-598, limits assumed); assay: cell-based or functional assay
[2] = target: MICA on MDA-MB-231 cells (UniProt Q29983 24-383, limits assumed); assay: cell-based or functional assay
UniProt Q29983, sequence (Q29983 24-383 limits assumed): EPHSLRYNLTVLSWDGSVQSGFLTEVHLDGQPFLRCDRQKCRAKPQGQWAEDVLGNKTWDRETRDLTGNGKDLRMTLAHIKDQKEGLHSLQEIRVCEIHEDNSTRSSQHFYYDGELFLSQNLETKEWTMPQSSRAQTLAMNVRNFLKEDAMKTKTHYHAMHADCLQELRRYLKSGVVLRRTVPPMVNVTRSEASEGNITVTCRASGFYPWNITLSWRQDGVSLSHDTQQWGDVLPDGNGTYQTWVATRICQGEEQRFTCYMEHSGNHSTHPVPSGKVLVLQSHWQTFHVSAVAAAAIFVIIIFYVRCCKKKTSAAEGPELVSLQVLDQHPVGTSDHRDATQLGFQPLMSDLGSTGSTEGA

Binder | TDCC EC50 (pM), MDA-MB-231 target cells, E:T 5 [1] [pM] | TDCC EC50 (pM), MDA-MB-231 target cells, E:T 5 [2] [pM]
SI-51E1 (other) heavy: DVVMTQSPSTLSASVGDRVTINCQASESISSWLAWYQQKPGKAPKLLIYEASKLASGVPSRFSGSGSGTEFTLTISSLQPDDFATYYCQGYFYFISRTYVNSFGGGTKVEIKGGGGSGGGGSGGGGSGGGGSEVQLVESGGGLVQPGGSLRLSCAASGFTISTNAMSWVRQAPGKGLEWIGVITGRDITYYASWAKGRFTISRDNSKNTLYLQMNSLRAEDTAVYYCARDGGSSAITSNNIWGQGTLVTVSTGGGGSGGGGSQVQLQQPGAELVRPGASVKLSCKASGYTFTSYWINWVKQRPGQGLEWIGNIYPSDSYTNYNQKFKDKATLTVDKSSSTAYMQLSSPTSEDSAVYYCTRSWRGNSFDYWGQGTTLTVSSASTKGPSVFPLAPSSKSTSGGTAALGCLVKDYFPEPVTVSWNSGALTSGVHTFPAVLQSSGLYSLSSVVTVPSSSLGTQTYICNVNHKPSNTKVDKRV[human IgG1 Fc with changes cut from this listing]GGGGSGGGGSEVQLLESGGGLVQPGGSLRLSCAASGFSFSSGYDMCWVRQAPGKGLEWIACIAAGSAGITYDANWAKGRFTISRDNSKNTLYLQMNSLRAEDTAVYYCARSAFSFDYAMDLWGQGTLVTVSSGGGGSGGGGSGGGGSGGGGSDIQMTQSPSTLSASVGDRVTITCQASQSISSHLNWYQQKPGKAPKLLIYKASTLASGVPSRFSGSGSGTEFTLTISSLQPDDFATYYCQQGYSWGNVDNVFGGGTKVEIKGGGGSGGGGSGRSLVESGGGLVQPGGSLRLSCTASGFTISSYHMQWVRQAPGKGLEYIGTISSGGNVYYASSARGRFTISRPSSKNTVDLQMNSLRAEDTAVYYCARDSGYSDPMWGQGTLVTVSSGGGGSGGGGSGGGGSGGGGSDVVMTQSPSSVSASVGDRVTITCQASQNIRTYLSWYQQKPGKAPKLLIYAAANLASGVPSRFSGSGSGTDFTLTISDLEPGDAATYYCQSTYLGTDYVGGAFGGGTKVEIK light: DIVMTQSPSSLTVTAGEKVTMSCKSSQSLLNSGNQKNYLTWYQQKPGQPPKLLIYWASTRESGVPDRFTGSGSGTDFTLTISSVQAEDLAVYYCQNDYSYPFTFGSGTKLEIKRTVAAPSVFIFPPSDEQLKSGTASVVCLLNNFYPREAKVQWKVDNALQSGNSQESVTEQDSKDSTYSLSSTLTLSKADYEKHKVYACEVTHQGLSSPVTKSFNRGEC | 0.009 | 
SI-49E2 (other) heavy: FLNSLFNQEVQIPLTESYCGPCPKNWICYKNNCYQFFDESKNWYESQASCMSQNASLLKVYSKEDQDLLKLVKSYHWMGLVHIPTNGSWQWEDGSILSPNLLTIIEMQKGDCALYASSFKGYIENCSTPNTYICMQRTVGGGGSGGGGSGGGGSGGGGSFLNSLFNQEVQIPLTESYCGPCPKNWICYKNNCYQFFDESKNWYESQASCMSQNASLLKVYSKEDQDLLKLVKSYHWMGLVHIPTNGSWQWEDGSILSPNLLTIIEMQKGDCALYASSFKGYIENCSTPNTYICMQRTVVDGGGGSGGGGSEVQLVESGGGLVQPGGSLRLSCAASGFTISTNAMSWVRQAPGKGLEWIGVITGRDITYYASWAKGRFTISRDNSKNTLYLQMNSLRAEDTAVYYCARDGGSSAITSNNIWGQGTLVTVSSASTKGPSVFPLAPSSKSTSGGTAALGCLVKDYFPEPVTVSWNSGALTSGVHTFPAVLQSSGLYSLSSVVTVPSSSLGTQTYICNVNHKPSNTKVDKRV[human IgG1 Fc with changes cut from this listing]GGGGSGGGGSRSLVESGGGLVQPGGSLRLSCTASGFTISSYHMQWVRQAPGKGLEYIGTISSGGNVYYASSARGRFTISRPSSKNTVDLQMNSLRAEDTAVYYCARDSGYSDPMWGQGTLVTVSSGGGGSGGGGSGGGGSGGGGSDVVMTQSPSSVSASVGDRVTITCQASQNIRTYLSWYQQKPGKAPKLLIYAAANLASGVPSRFSGSGSGTDFTLTISDLEPGDAATYYCQSTYLGTDYVGGAFGGGTKVEIKGGGGSGGGGSGEVQLLESGGGLVQPGGSLRLSCAASGFSFSSGYDMCWVRQAPGKGLEWIACIAAGSAGITYDANWAKGRFTISRDNSKNTLYLQMNSLRAEDTAVYYCARSAFSFDYAMDLWGQGTLVTVSSGGGGSGGGGSGGGGSGGGGSDIQMTQSPSTLSASVGDRVTITCQASQSISSHLNWYQQKPGKAPKLLIYKASTLASGVPSRFSGSGSGTEFTLTISSLQPDDFATYYCQQGYSWGNVDNVFGGGTKVEIK light: DVVMTQSPSTLSASVGDRVTINCQASESISSWLAWYQQKPGKAPKLLIYEASKLASGVPSRFSGSGSGTEFTLTISSLQPDDFATYYCQGYFYFISRTYVNSFGGGTKVEIKRTVAAPSVFIFPPSDEQLKSGTASVVCLLNNFYPREAKVQWKVDNALQSGNSQESVTEQDSKDSTYSLSSTLTLSKADYEKHKVYACEVTHQGLSSPVTKSFNRGEC |  | 0.129
SI-49E3 (other) heavy: DVVMTQSPSSVSASVGDRVTITCQASQNIRTYLSWYQQKPGKAPKLLIYAAANLASGVPSRFSGSGSGTDFTLTISDLEPGDAATYYCQSTYLGTDYVGGAFGGGTKVEIKGGGGSGGGGSGGGGSGGGGSRSLVESGGGLVQPGGSLRLSCTASGFTISSYHMQWVRQAPGKGLEYIGTISSGGNVYYASSARGRFTISRPSSKNTVDLQMNSLRAEDTAVYYCARDSGYSDPMWGQGTLVTVSTGGGGSGGGGSEVQLLESGGGLVQPGGSLRLSCAASGFSFSSGYDMCWVRQAPGKGLEWIACIAAGSAGITYDANWAKGRFTISRDNSKNTLYLQMNSLRAEDTAVYYCARSAFSFDYAMDLWGQGTLVTVSSASTKGPSVFPLAPSSKSTSGGTAALGCLVKDYFPEPVTVSWNSGALTSGVHTFPAVLQSSGLYSLSSVVTVPSSSLGTQTYICNVNHKPSNTKVDKRV[human IgG1 Fc with changes cut from this listing]GGGGSGGGGSEVQLVESGGGLVQPGGSLRLSCAASGFTISTNAMSWVRQAPGKGLEWIGVITGRDITYYASWAKGRFTISRDNSKNTLYLQMNSLRAEDTAVYYCARDGGSSAITSNNIWGQGTLVTVSSGGGGSGGGGSGGGGSGGGGSDVVMTQSPSTLSASVGDRVTINCQASESISSWLAWYQQKPGKAPKLLIYEASKLASGVPSRFSGSGSGTEFTLTISSLQPDDFATYYCQGYFYFISRTYVNSFGGGTKVEIKGGGGSGGGGSGFLNSLFNQEVQIPLTESYCGPCPKNWICYKNNCYQFFDESKNWYESQASCMSQNASLLKVYSKEDQDLLKLVKSYHWMGLVHIPTNGSWQWEDGSILSPNLLTIIEMQKGDCALYASSFKGYIENCSTPNTYICMQRTVGGGGSGGGGSGGGGSGGGGSFLNSLFNQEVQIPLTESYCGPCPKNWICYKNNCYQFFDESKNWYESQASCMSQNASLLKVYSKEDQDLLKLVKSYHWMGLVHIPTNGSWQWEDGSILSPNLLTIIEMQKGDCALYASSFKGYIENCSTPNTYICMQRTV light: DIQMTQSPSTLSASVGDRVTITCQASQSISSHLNWYQQKPGKAPKLLIYKASTLASGVPSRFSGSGSGTEFTLTISSLQPDDFATYYCQQGYSWGNVDNVFGGGTKVEIKRTVAAPSVFIFPPSDEQLKSGTASVVCLLNNFYPREAKVQWKVDNALQSGNSQESVTEQDSKDSTYSLSSTLTLSKADYEKHKVYACEVTHQGLSSPVTKSFNRGEC |  | 0.055
SI-49E4 (other) heavy: DIQMTQSPSTLSASVGDRVTITCQASQSISSHLNWYQQKPGKAPKLLIYKASTLASGVPSRFSGSGSGTEFTLTISSLQPDDFATYYCQQGYSWGNVDNVFGGGTKVEIKGGGGSGGGGSGGGGSGGGGSEVQLLESGGGLVQPGGSLRLSCAASGFSFSSGYDMCWVRQAPGKGLEWIACIAAGSAGITYDANWAKGRFTISRDNSKNTLYLQMNSLRAEDTAVYYCARSAFSFDYAMDLWGQGTLVTVSTGGGGSGGGGSRSLVESGGGLVQPGGSLRLSCTASGFTISSYHMQWVRQAPGKGLEYIGTISSGGNVYYASSARGRFTISRPSSKNTVDLQMNSLRAEDTAVYYCARDSGYSDPMWGQGTLVTVSSASTKGPSVFPLAPSSKSTSGGTAALGCLVKDYFPEPVTVSWNSGALTSGVHTFPAVLQSSGLYSLSSVVTVPSSSLGTQTYICNVNHKPSNTKVDKRV[human IgG1 Fc with changes cut from this listing]GGGGSGGGGSEVQLVESGGGLVQPGGSLRLSCAASGFTISTNAMSWVRQAPGKGLEWIGVITGRDITYYASWAKGRFTISRDNSKNTLYLQMNSLRAEDTAVYYCARDGGSSAITSNNIWGQGTLVTVSSGGGGSGGGGSGGGGSGGGGSDVVMTQSPSTLSASVGDRVTINCQASESISSWLAWYQQKPGKAPKLLIYEASKLASGVPSRFSGSGSGTEFTLTISSLQPDDFATYYCQGYFYFISRTYVNSFGGGTKVEIKGGGGSGGGGSGFLNSLFNQEVQIPLTESYCGPCPKNWICYKNNCYQFFDESKNWYESQASCMSQNASLLKVYSKEDQDLLKLVKSYHWMGLVHIPTNGSWQWEDGSILSPNLLTIIEMQKGDCALYASSFKGYIENCSTPNTYICMQRTVGGGGSGGGGSGGGGSGGGGSFLNSLFNQEVQIPLTESYCGPCPKNWICYKNNCYQFFDESKNWYESQASCMSQNASLLKVYSKEDQDLLKLVKSYHWMGLVHIPTNGSWQWEDGSILSPNLLTIIEMQKGDCALYASSFKGYIENCSTPNTYICMQRTV light: DVVMTQSPSSVSASVGDRVTITCQASQNIRTYLSWYQQKPGKAPKLLIYAAANLASGVPSRFSGSGSGTDFTLTISDLEPGDAATYYCQSTYLGTDYVGGAFGGGTKVEIKRTVAAPSVFIFPPSDEQLKSGTASVVCLLNNFYPREAKVQWKVDNALQSGNSQESVTEQDSKDSTYSLSSTLTLSKADYEKHKVYACEVTHQGLSSPVTKSFNRGEC |  | 0.009
